Data published in PMC4336329 (PLoS ONE, 2015).
The campaign covered roughly 310,000 compounds. About 14,000 (4.5%) showed an effect of 50% or more. The effect is printed as a negative number. Some of the results follow.

biological target: human ether-à-go-go-related gene (hERG) potassium channel (human, UniProt Q12809); test: primary screen, population patch clamp on CHO cells stably expressing hERG
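Note: peak tail current of the secondary pulse compared with the same well before compound.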

Sequence of human ether-à-go-go-related gene (hERG) potassium channel (Q12809 whole entry, looked up): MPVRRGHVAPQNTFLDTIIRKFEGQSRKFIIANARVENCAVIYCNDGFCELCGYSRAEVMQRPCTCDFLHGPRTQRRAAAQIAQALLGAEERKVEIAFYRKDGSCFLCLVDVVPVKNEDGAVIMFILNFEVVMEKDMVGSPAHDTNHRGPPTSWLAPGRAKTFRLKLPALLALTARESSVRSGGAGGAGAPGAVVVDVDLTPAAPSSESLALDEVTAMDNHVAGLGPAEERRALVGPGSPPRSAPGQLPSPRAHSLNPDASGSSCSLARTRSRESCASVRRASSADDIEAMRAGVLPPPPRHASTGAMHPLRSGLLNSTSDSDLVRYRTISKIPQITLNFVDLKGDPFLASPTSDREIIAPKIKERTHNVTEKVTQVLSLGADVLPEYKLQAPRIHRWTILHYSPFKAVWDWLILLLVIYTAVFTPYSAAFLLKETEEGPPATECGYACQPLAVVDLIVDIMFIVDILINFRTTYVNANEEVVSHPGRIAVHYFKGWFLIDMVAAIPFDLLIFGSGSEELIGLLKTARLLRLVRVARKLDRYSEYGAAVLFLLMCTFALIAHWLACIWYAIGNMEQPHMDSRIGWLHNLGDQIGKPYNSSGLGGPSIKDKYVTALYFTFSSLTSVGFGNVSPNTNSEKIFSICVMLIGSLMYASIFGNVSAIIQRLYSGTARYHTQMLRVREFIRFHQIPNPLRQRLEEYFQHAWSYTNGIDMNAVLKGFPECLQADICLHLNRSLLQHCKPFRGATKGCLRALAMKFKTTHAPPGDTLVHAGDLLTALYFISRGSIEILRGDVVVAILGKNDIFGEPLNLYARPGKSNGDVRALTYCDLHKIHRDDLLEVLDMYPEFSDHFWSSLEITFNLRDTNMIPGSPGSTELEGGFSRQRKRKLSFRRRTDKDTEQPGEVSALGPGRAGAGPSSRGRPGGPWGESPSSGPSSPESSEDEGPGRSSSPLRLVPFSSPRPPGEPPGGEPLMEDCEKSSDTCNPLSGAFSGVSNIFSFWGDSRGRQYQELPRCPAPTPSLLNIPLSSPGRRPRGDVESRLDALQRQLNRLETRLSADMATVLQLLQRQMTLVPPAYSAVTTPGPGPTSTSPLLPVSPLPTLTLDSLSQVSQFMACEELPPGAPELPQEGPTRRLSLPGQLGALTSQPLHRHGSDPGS

Row | Compound | hERG current change (%, negative = inhibition) at 10uM
1 | O=C1CC(c2ccccc2)CC(O)=C1C=NC1CCCC1 (centres unmarked) | -5.2%
2 | COc1ccc(OC)c(CNC(=O)C2CCN(S(=O)(=O)N3CCCC3)CC2)c1 | -6.59%
3 | CCOc1ccc(N(CC(=O)Nc2cccc(Br)c2)S(C)(=O)=O)cc1 | -1.12%
4 | CC(C)C(NC(=O)c1ccc(Br)cc1)C(=O)NC1=NCCS1 (centres unmarked) | -8.44%
5 | COc1ccc(OC)c(C(c2nnnn2C2CCCC2)N2CCN(c3ccccc3)CC2)c1.Cl (centres unmarked) | -40.8%
6 | CCNC(=S)N1CCc2ccccc2C1 | 2.33%
7 | Cc1ccc(OCCCCNC2CCCCC2)c(C)c1.O=C(O)C(=O)O | -42.8%
8 | Brc1cc2c(cc1Br)OCCOCCOCCO2 | -11.5%
9 | Cc1c(C(=O)c2ccccc2)oc2ccc3ccccc3c12 | 4.87%
10 | O=C1N(Cc2cccc(Cl)c2)C[C@@H]2C[C@@H](c3c[nH]c4ccccc34)N3CCC[C@@]123 | -74.8%
11 | COc1cc(C)nc(N2CCCC(C(=O)NC3CCC(C)CC3)C2)n1 (centres unmarked) | -0.336%
12 | COc1ccc(Oc2ccc(C(F)(F)F)cc2NC(=O)CC(CC(=O)O)c2ccccc2)cc1 (centres unmarked) | 10.6%
13 | COC(=O)CC(NS(=O)(=O)c1cccs1)c1ccc2c(c1)OCO2 (centres unmarked) | 16.1%
14 | Cc1ccnc(NC(=O)c2ccccc2[N+](=O)[O-])c1 | 9.55%
15 | CCc1ccc(/C=N/NC(=O)Cc2cccn2C)cc1 | -0.053%
16 | NC(=O)c1oc2ccccc2c1NC(=O)c1ccccc1 | 3.73%
17 | S=C(NCCCN1CCOCC1)N1CCN(c2nc(-c3ccccc3)cs2)CC1 | -12.8%
18 | Cc1cnc(C)c(N2CCN(C(=O)C3CCC(=O)N(CCc4cccc(F)c4)C3)CC2)n1 (centres unmarked) | -53.9%
19 | COc1cccc(C(=O)NNC(=O)c2cccnc2)c1 | 20.4%
20 | Cc1oc(-c2ccccc2F)nc1CN1CCC(C(=O)NCc2ccco2)CC1 | -38%
21 | O=C(NCCc1ccc(Cl)cc1)C1CCCN(S(=O)(=O)c2cnc[nH]2)C1 (centres unmarked) | -3.31%
22 | Br.Cc1nc(SC2C=CS(=O)(=O)C2)n[nH]1 (centres unmarked) | 10.6%
23 | COCCn1c(SC(C)C(=O)Nc2ccc3c(c2)OCCO3)nc2ccccc2c1=O (centres unmarked) | -1.62%

Row | Compound | hERG current change (%, negative = inhibition) at 10uM
24 | COc1ccc(CNCC(=O)Nc2cc(OC)cc(OC)c2)cc1.O=C(O)C(=O)O | 4.46%
25 | COc1cccc(C(=O)OCCN2C(=O)c3ccccc3C2=O)c1OC | 4.5%
26 | COc1ccc(C(CC(=O)O)NC(=O)COc2ccc(C)cc2)cc1OC (centres unmarked) | 15.2%
27 | O=C(Cc1ccc(Cl)cc1)NCCc1c[nH]c2ccccc12 | -19.8%
28 | O=C(O)/C=C/C(=O)Nc1ccccc1SC(F)(F)F | 5.74%
29 | Cn1c(C(=O)O)c(CC(=O)N2CCN(Cc3ccccc3)CC2)c2ccccc21 | 12.1%
30 | CSc1n[nH]c(N)c1S(=O)(=O)c1ccc(Cl)cc1 | 4.54%
31 | Cc1ccc(-n2c(Cc3cccs3)nnc2SCC(=O)Nc2ccc(S(N)(=O)=O)cc2)cc1 | -12.3%
32 | O=C(COc1ccc(S(=O)(=O)N2CCCC2)cc1)Nc1ccc(F)cc1 | 5.18%
33 | O=C(OC1CCOC1=O)c1ccc(NS(=O)(=O)c2cccs2)cc1 (centres unmarked) | 21.8%
34 | COc1cccc(SCc2noc(C(=O)NCCN(C)C)c2C(=O)NCCN(C)C)c1 | 10.3%
35 | COC(=O)[C@H](Cc1ccccc1)NC(=O)NCc1ccc(C)cc1 | -21.3%
36 | CC1CN(C(=O)c2ccc(C(=O)c3ccccc3)cc2)CC(C)O1 (centres unmarked) | 3.89%
37 | Cc1nn(-c2ccccc2)c(C)c1NC(=O)CCl | 1.23%
38 | CCc1ccc(OCC(=O)N(Cc2ccccc2)C2CCS(=O)(=O)C2)cc1 (centres unmarked) | -30%
39 | Cc1ccc(C(C(=O)NC2CCCC2)N(Cc2cccnc2)C(=O)c2snc(C(N)=O)c2N)o1 (centres unmarked) | -16.2%
40 | CCOc1ccc(NC(=S)NCCCN2CCN(c3ccc(OC)cc3)CC2)cc1 | -70.7%
41 | O=C(COc1ccccc1Cl)NC(=S)N1CCc2ccccc21 | -25.8%
42 | CCOC(=O)C(=CNc1ccc2c(c1)CCN2C(C)=O)C(=O)OCC | -12.5%
43 | Nc1n[nH]c2cc(=O)n(-c3cccc(C(F)(F)F)c3)nc12 | 15.1%
44 | Cn1c(=O)cc(SCC(=O)N2CCN(c3ccccc3)CC2)c2ccccc21 | -30.9%
45 | CC(C)C(C(=O)NC1=NCCS1)c1ccc(Cl)cc1 (centres unmarked) | 24.2%
46 | C/C(=N/NC(=O)c1sc(=S)n(C)c1C)c1ccccc1 | 24.6%

Row | Compound | hERG current change (%, negative = inhibition) at 10uM
47 | Cc1ccc(NC(=O)c2ccccc2OCC(=O)Nc2cccc(Cl)c2C)nc1 | 6.67%
48 | COc1ccc(CCN(Cc2cc3ccc(C)cc3n3nnnc23)C(C)=O)cc1OC | -32.7%
49 | c1ccc(Nc2nc(-c3ccccn3)cs2)cc1 | -2.41%
50 | COc1ccc(OC)c(/C=C(\NC(=O)c2ccccc2)C(=O)N/N=C/c2ccc(C)s2)c1 | -28.3%
51 | Cc1ccc(CNC(=O)Nc2cccs2)cc1 | -3.95%
52 | COC(=O)c1c(N)n(-c2ccc(NC(C)=O)cc2)c2nc3ccccc3nc12 | 8.25%
53 | O=C(NNc1nc2ccccc2o1)c1ccccc1 | -37.6%
54 | C/C(=N/NC(=O)CNC(=O)c1ccccc1)c1ccc(C)cc1 | -41.5%
55 | CN(C)S(=O)(=O)c1ccc(C(=O)NCCC(=O)N2CCCC2)cc1 | 15.3%
56 | COc1ccc(CCNC(=O)CN2C(=O)c3ccccc3S2(=O)=O)cc1 | -7.12%
57 | CCOC(=O)c1c(NC(=O)COC(=O)c2nccnc2N)sc2c1CCC2 | 10.4%
58 | COc1ccc(CNC(=O)CN2C(=O)NC(C)(c3ccc(C(C)(C)C)cc3)C2=O)cc1 (centres unmarked) | -10.6%
59 | COc1ccc(NS(=O)(=O)c2ccc(N/N=C(\C)c3ccncc3)c([N+](=O)[O-])c2)cc1 | 4.88%
60 | Oc1ccccc1OCc1nc2ccccc2s1 | -13.7%
61 | O=C(CSc1nc(-c2ccccc2)cc(C(F)(F)F)n1)NCCN1CCOCC1 | -14.8%
62 | Cc1cc(O)c(C2(O)C(=O)Nc3ccccc32)cc1C (centres unmarked) | 11.6%
63 | CCCC(=O)c1c[nH]c(C(=O)NCCc2ccccn2)c1 | 26.4%
64 | O=C1CCCCN1CCCC(=O)N1CCCC(Nc2ccc(F)cc2)C1 (centres unmarked) | 16%
65 | O=C(NC(=S)Nc1cccc([N+](=O)[O-])c1)c1ccco1 | 9.47%
66 | C#CC(CC)(CC)NC(=O)NC1CCCCC1 | 15%
67 | CCCNC(=S)N1CCC(Cc2ccccc2)CC1 | 13.7%
68 | CNC(=O)CSc1nc2sccc2c(=O)n1-c1ccccc1 | 10.5%
69 | CCC(C)n1c(C)cc(C(N)=O)c1C (centres unmarked) | 12.3%

Row | Compound | hERG current change (%, negative = inhibition) at 10uM
70 | COc1ccc(Cl)cc1C(=O)Nc1cccnc1 | 17.4%
71 | Cc1cc(C)cc(OCC(=O)Nc2ccc3c4c(cccc24)CC3)c1 | 5.36%
72 | Cc1ccc(C(=O)NCCNS(=O)(=O)c2ccccc2)cc1 | -8.87%
73 | COc1ccccc1NC(=O)C(C)OC(=O)c1nc2nc(C)cc(C)n2n1 (centres unmarked) | 8.89%
74 | CC1(C)Cc2c(C#N)c(OCC(=O)c3ccccc3)nc(-c3ccoc3)c2CO1 | -6.19%
75 | O=C(CNC(=O)c1ccccc1)NCC(=O)OCc1ccc(Cl)cc1 | -29.3%
76 | Cc1ccc(-c2nn(C)c(=O)c3ccccc23)cc1CNC(=O)c1ccccc1 | -34.5%
77 | Cc1c(Cl)cccc1NC(=O)CCC(=O)N/N=C/c1ccc[nH]1 | -2.38%
78 | COc1ccc(-c2csc(NCCc3nc4cc(Cl)c(N5CCCCC5)cc4n3CCOCCO)n2)cc1 | -10.4%
79 | CC(=O)c1csc(CS(=O)(=O)c2ccccn2)n1 | 5.4%
80 | O=C(NCc1ccco1)C1CC(c2ccc(Cl)cc2)=NO1 (centres unmarked) | 1.47%
81 | COc1ccccc1NC(=O)NC1(C(=O)N2CCN(C)CC2)CCCCC1 | 20.4%
82 | CCCc1cc(C(=O)NC2CCCC2)no1 | 0.175%
83 | Cc1cc(C(=O)OCC(=O)NC2CC2)c2ccccc2n1 | 11.1%
84 | COc1ccc(NS(=O)(=O)c2csc(C(N)=O)c2)cc1 | 14.2%
85 | O=S(=O)(C(=CNc1ccccc1)S(=O)(=O)c1ccccc1)c1ccccc1 | -4.38%
86 | CCOc1ccc(N2C(=O)c3cccnc3C2Nc2ccc(OC)cc2)cc1 (centres unmarked) | -3.64%
87 | Cc1nc2ccccc2c(=O)n1/N=C1\C(=O)N(C)c2ccccc21 | 31.8%
88 | CN(C)C(=O)CSc1nc(SCC(=O)N(C)C)n(-c2ccccc2)n1 | 6.34%
89 | CC(C)OCCCn1c(=S)[nH]c2ncccc2c1=O | 11%
90 | CCOP(=O)(c1ccccc1)C1(O)CCCCC1 (centres unmarked) | -1.86%
91 | Cn1c(COc2ccccc2)nnc1SCCN1CCOCC1 | 2.22%
92 | O=C(Nc1cccc(C(F)(F)F)c1)c1cc2c(=O)c3ccccc3oc2nc1C(F)(F)F | 1.61%
